# This is one part of the list.
# Tests used:
# Assay in all cases: glycan array binding signal (z-score within array); higher = stronger binding
# Conditions in all cases: glycan notation: IUPAC condensed, linker removed
# [1] = biological target: Fuc(a1-2)Gal
# Summary of the method: (§1)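 Arrays were curated from the Consortium for Functional Glycomics database, 3228 in total, and kept only where the protein sequence was available. Binding is expressed as a within-array Z-score. This score was averaged across arrays of the same protein sequence at different concentrations or buffers and across linkers, and negative values can be read as non-binding.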
# [2] = biological target: Fuc(a1-2)Gal(b1-3)GalNAc
# Summary of the method: as §1
# [3] = biological target: Fuc(a1-2)Gal(b1-3)GalNAc(b1-3)Gal
# Summary of the method: as §1
# [4] = biological target: Fuc(a1-2)Gal(b1-3)GalNAc(b1-3)Gal(a1-4)Gal(b1-4)Glc
# Summary of the method: as §1
# [5] = biological target: Fuc(a1-2)Gal(b1-3)GalNAc(b1-4)[Neu5Ac(a2-3)]Gal(b1-4)Glc
# Summary of the method: as §1
# [6] = biological target: Fuc(a1-2)Gal(b1-3)GlcNAc
# Summary of the method: as §1
# [7] = biological target: Fuc(a1-2)Gal(b1-3)GlcNAc(b1-3)Gal(b1-4)Glc
# Summary of the method: as §1
# [8] = biological target: Fuc(a1-2)Gal(b1-3)[Fuc(a1-4)]GlcNAc
# Summary of the method: as §1
# [9] = biological target: Fuc(a1-2)Gal(b1-4)Glc
# Summary of the method: as §1
# [10] = biological target: Fuc(a1-2)Gal(b1-4)Glc6S
# Summary of the method: as §1
# [11] = biological target: Fuc(a1-2)Gal(b1-4)GlcNAc
# Summary of the method: as §1
# [12] = biological target: Fuc(a1-2)Gal(b1-4)GlcNAc(b1-3)Gal(b1-4)GlcNAc
# Summary of the method: as §1
# [13] = biological target: Fuc(a1-2)Gal(b1-4)GlcNAc(b1-3)Gal(b1-4)GlcNAc(b1-3)Gal(b1-4)GlcNAc
# Summary of the method: as §1
# [14] = biological target: Fuc(a1-2)Gal(b1-4)GlcNAc6S
# Summary of the method: as §1
# [15] = biological target: Fuc(a1-2)Gal(b1-4)[Fuc(a1-3)]GlcNAc
# Summary of the method: as §1
# [16] = biological target: Fuc(a1-2)Gal(b1-4)[Fuc(a1-3)]GlcNAc(b1-3)Gal(b1-4)[Fuc(a1-3)]GlcNAc
# Summary of the method: as §1
# [17] = biological target: Fuc(a1-2)Gal(b1-4)[Fuc(a1-3)]GlcNAc(b1-3)Gal(b1-4)[Fuc(a1-3)]GlcNAc(b1-3)Gal(b1-4)[Fuc(a1-3)]GlcNAc
# Summary of the method: as §1
# [18] = biological target: Fuc(a1-2)Gal6S(b1-4)Glc
# Summary of the method: as §1
# [19] = biological target: Fuc(a1-2)Gal6S(b1-4)Glc6S
# Summary of the method: as §1
# [20] = biological target: Fuc(a1-2)Gal6S(b1-4)GlcNAc
# Summary of the method: as §1
# [21] = biological target: Fuc(a1-2)[Gal(a1-3)]Gal
# Summary of the method: as §1
# [22] = biological target: Fuc(a1-2)[Gal(a1-3)]Gal(b1-3)GlcNAc
# Summary of the method: as §1
# [23] = biological target: Fuc(a1-2)[Gal(a1-3)]Gal(b1-4)Glc
# Summary of the method: as §1
# [24] = biological target: Fuc(a1-2)[Gal(a1-3)]Gal(b1-4)GlcNAc
# Summary of the method: as §1
# [25] = biological target: Fuc(a1-2)[Gal(a1-3)]Gal(b1-4)[Fuc(a1-3)]GlcNAc
# Summary of the method: as §1
# [26] = biological target: Fuc(a1-2)[Gal(a1-4)]Gal(b1-4)GlcNAc
# Summary of the method: as §1
# [27] = biological target: Fuc(a1-2)[GalNAc(a1-3)]Gal
# Summary of the method: as §1
# [28] = biological target: Fuc(a1-2)[GalNAc(a1-3)]Gal(b1-3)GlcNAc
# Summary of the method: as §1
# [29] = biological target: Fuc(a1-2)[GalNAc(a1-3)]Gal(b1-4)Glc
# Summary of the method: as §1
# [30] = biological target: Fuc(a1-2)[GalNAc(a1-3)]Gal(b1-4)GlcNAc
# Summary of the method: as §1
# [31] = biological target: Fuc(a1-2)[GalNAc(a1-3)]Gal(b1-4)[Fuc(a1-3)]GlcNAc
# Summary of the method: as §1
# [32] = biological target: Fuc(a1-2)[GalNAc(a1-4)]Gal(b1-4)GlcNAc
# Summary of the method: as §1
# [33] = biological target: Fuc(a1-2)[GalNAc(b1-3)]Gal
# Summary of the method: as §1
# [34] = biological target: Fuc(a1-3)GlcNAc
# Summary of the method: as §1
# [35] = biological target: Fuc(a1-3)[Gal(b1-4)]Glc6S
# Summary of the method: as §1
# [36] = biological target: Fuc(a1-3)[Gal(b1-4)]GlcNAc
# Summary of the method: as §1
# [37] = biological target: Fuc(a1-3)[Gal(b1-4)]GlcNAc(b1-2)Man(a1-3)[Fuc(a1-3)[Gal(b1-4)]GlcNAc(b1-2)Man(a1-6)]Man(b1-4)GlcNAc(b1-4)GlcNAc
# Summary of the method: as §1
# [38] = biological target: Fuc(a1-3)[Gal(b1-4)]GlcNAc(b1-2)Man(a1-6)[Gal(b1-4)GlcNAc(b1-2)Man(a1-3)]Man(b1-4)GlcNAc(b1-4)GlcNAc
# Summary of the method: as §1
# [39] = biological target: Fuc(a1-3)[Gal(b1-4)]GlcNAc(b1-3)Gal(b1-3)[Fuc(a1-4)]GlcNAc
# Summary of the method: as §1
# [40] = biological target: Fuc(a1-3)[Gal(b1-4)]GlcNAc(b1-4)Gal(b1-4)[Fuc(a1-3)]GlcNAc
# Summary of the method: as §1
# [41] = biological target: Fuc(a1-3)[Gal(b1-4)]GlcNAc(b1-4)Gal(b1-4)[Fuc(a1-3)]GlcNAc(b1-4)Gal(b1-4)[Fuc(a1-3)]GlcNAc
# Summary of the method: as §1
# [42] = biological target: Fuc(a1-3)[Gal(b1-4)]GlcNAc6S
# Summary of the method: as §1
# [43] = biological target: Fuc(a1-3)[Gal3S(b1-4)]Glc6S
# Summary of the method: as §1
# [44] = biological target: Fuc(a1-3)[Gal3S(b1-4)]GlcNAc
# Summary of the method: as §1
# [45] = biological target: Fuc(a1-3)[Gal3S(b1-4)]GlcNAc6S
# Summary of the method: as §1
binder,measurement,setting,value
"Gal 8 (Homo sapiens), O00214 (protein) MMLSLNNLQNIIYNPVIPFVGTIPDQLDPGTLIVIRGHVPSDADRFQVDLQNGSSMKPRADVAFHFNPRFKRAGCIVCNTLINEKWGREEITYDTPFKREKSFEIVIMVKDKFQVAVNGKHTLLYGHRIGPEKIDTLGIYGKVNIHSIGFSFSSDLQSTQASSLELTEISRENVPKSGTPQLPSNRGGDISKIAPRTVYTKSKDSTVNHTLTCTKIPPMNYVSKRLPFAARLNTPMGPGRTVVVKGEVNANAKSFNVDLLAGKSKDIALHLNPRLNIKAFVRNSFLQESWGEEERNITSFPFSPGMYFEMIIYCDVREFKVAVNGVHSLEYKHRFKELSSIDTLEINGDIHLLEVRSW",glycan array binding signal (z-score),[1],-0.412
same,glycan array binding signal (z-score),[2],0.128
same,glycan array binding signal (z-score),[3],-0.432
same,glycan array binding signal (z-score),[4],-0.141
same,glycan array binding signal (z-score),[5],-0.168
same,glycan array binding signal (z-score),[6],1.36
same,glycan array binding signal (z-score),[7],1.29
same,glycan array binding signal (z-score),[8],-0.434
same,glycan array binding signal (z-score),[9],0.114
same,glycan array binding signal (z-score),[10],0.286
same,glycan array binding signal (z-score),[11],-0.016
same,glycan array binding signal (z-score),[12],1.13
same,glycan array binding signal (z-score),[13],1.22
same,glycan array binding signal (z-score),[14],0.154
same,glycan array binding signal (z-score),[15],-0.408
same,glycan array binding signal (z-score),[16],-0.431
same,glycan array binding signal (z-score),[17],-0.386
same,glycan array binding signal (z-score),[18],-0.427
same,glycan array binding signal (z-score),[19],-0.451
same,glycan array binding signal (z-score),[20],-0.438
same,glycan array binding signal (z-score),[21],-0.409
same,glycan array binding signal (z-score),[22],3.58
same,glycan array binding signal (z-score),[23],5.02
same,glycan array binding signal (z-score),[24],4.8
same,glycan array binding signal (z-score),[25],-0.447
same,glycan array binding signal (z-score),[26],-0.452
same,glycan array binding signal (z-score),[27],-0.428
same,glycan array binding signal (z-score),[28],1.9
same,glycan array binding signal (z-score),[29],4.22
same,glycan array binding signal (z-score),[30],2.24
same,glycan array binding signal (z-score),[31],-0.41
same,glycan array binding signal (z-score),[32],-0.412
same,glycan array binding signal (z-score),[33],0.118
same,glycan array binding signal (z-score),[34],-0.382
same,glycan array binding signal (z-score),[35],-0.374
same,glycan array binding signal (z-score),[36],-0.437
same,glycan array binding signal (z-score),[37],-0.433
same,glycan array binding signal (z-score),[38],-0.195
same,glycan array binding signal (z-score),[39],-0.442
same,glycan array binding signal (z-score),[40],-0.416
same,glycan array binding signal (z-score),[41],-0.006
same,glycan array binding signal (z-score),[42],-0.432
same,glycan array binding signal (z-score),[43],-0.295
same,glycan array binding signal (z-score),[44],-0.441
same,glycan array binding signal (z-score),[45],-0.23

# Source: the supplement of paper PMC8728848
